In PubChem BioAssay AID652104 (National Center for Advancing Translational Sciences (NCATS), 2013):
Screen size: about 410,000 compounds; about 7,200 (1.8%) were called active. This list was built around the results that the source calls inconclusive (neither active nor inactive); the mix of calls is not that of the screen. Calls come from the whole dose curve; as a rule, active = well fitted activation curve with a large enough effect; inconclusive = small, poorly fitted or top-dose-only effect, or another doubt; inactive = no such curve, though single readings can be large or run the other way. No potency is given beside an inconclusive call; the fits are too rough. Where a structure was tested more than once in an assay, its records may differ in their call.

assay: qHTS of TDP-43 Inhibitors; settings: TDP-43 expressing yeast growth rescue, BacTiter-Glo, 24 h; growth rescue (activation): at 46.1 µM (top of the series) unless noted; note: nearly all actives have a fitted effect of over 50% in size; for growth rescue (activation): % of control where 0% means no effect
In short: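 Galactose-induced TDP-43 yeast, OD600=0.02, compound pinned; 24 hr, 30 deg C; BacTiter-Glo luminescence for growth. Inhibitors of TDP-43 toxicity read as activators.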
Potency is the fitted concentration of half-maximal effect; tags give direction and shape of the fitted curve.

SMILES	Potency	growth rescue (activation)
COc1ccccc1C(=O)NCc1nnnn1-c1ccc(C)c(C)c1	inconclusive [activator, partial curve]	–
COc1ccc(C(O)c2nc(-c3cccc4cccnc34)cs2)cc1 (stereo unspecified)	inconclusive [activator, full curve, poor fit]	–
CC1(C(=O)NCc2ccc(Cl)cc2)CCN1C(=O)Cc1cccc2ccccc12 (stereo unspecified)	active: 35.5 µM	–
COc1ccc(O)c(C(=O)/C=C/c2cc3ccccc3o2)c1	inconclusive [activator, single point]	–
Cc1cccc(N(C(=O)c2snc(C(N)=O)c2N)C(C(=O)NC2CCCC2)c2ccc(C)o2)c1 (stereo unspecified)	–	inactive: -3.86%
COc1ccc(C2CC2/C(=N/O)c2ccccn2)cc1 (stereo unspecified)	inconclusive [activator, single point]	–
COC(=O)c1ccc(C(=O)OC)c(NC(=O)CN(C)Cc2cccc(Cl)c2Cl)c1	inconclusive [activator, single point]	–
CCOC(=O)c1ccc(Nc2nc3nonc3nc2Nc2cccc(C)c2C)cc1	–	inactive: 2.73%
CC(=O)N/C(=C\c1ccc(F)cc1)C(=O)OCc1ccccc1	inconclusive [activator, partial curve, poor fit]	–
O=C(Nc1cccc(Cl)c1)NC1CCCCC1	inconclusive [activator, full curve]	–
C/C=C(/C)C(=O)O[C@@H]1Cc2c(ccc3ccc(=O)oc23)OC1(C)C	inconclusive [activator, single point]	–
COc1cc(C)c2occ(/C(C)=N\O)c2c1	inconclusive [activator, partial curve]	–
Oc1ccc2ccccc2c1/C=N/Nc1nnc(-c2ncc[nH]2)c2ccccc12	inconclusive [activator, single point]	–
CCn1c(=NC(=O)CS(=O)(=O)c2ccccc2)sc2cccc(OC)c21	inconclusive [activator, single point]	–
CCN(CC)S(=O)(=O)c1ccc(NC(=S)NC(=O)CC(C)C)cc1	inconclusive [activator, single point]	–
CN(C)c1ccc(C(=O)Nc2cccc(-c3nc4cccnc4s3)c2)cc1	–	inactive: 2.32%
O[C@@H]1COC(Nc2ccc(N=Nc3ccccc3)cc2)C[C@@H]1O (stereo partly specified)	active: 12.6 µM	–
C=CCN=c1scc(-c2ccccc2)n1/N=C/c1ccccn1	active: 22.4 µM	–
Cc1cc(C(=O)COC(=O)C2CCN(C(=O)c3ccc(Cl)cc3)CC2)c(C)n1CC1CCCO1 (stereo unspecified)	inconclusive [activator, partial curve]	–
CCOc1ccc(C(=O)Nc2ccccc2OCc2cc(=O)n3ccccc3n2)cc1	–	inactive: 23.9%
Cc1ccc(-c2nc(C(=O)NCC3CCCO3)cc3c2[nH]c2ccccc23)cc1 (stereo unspecified)	active: 25.1 µM	–
Cc1ccccc1C(=O)OCc1cc(=O)n2c(C)csc2n1	inconclusive [activator, partial curve]	–
CCOC(=O)N1CCN(C(=O)c2ccc3oc(CCCc4ccccc4)nc3c2)CC1	active: 15.8 µM	–
Cc1ccc(NC(=O)Cc2ccsc2)cc1Cl	inconclusive [activator, partial curve]	–

SMILES	Potency	growth rescue (activation)
CCCN(C(=O)COc1cc(=O)n(CC)c2ccccc12)c1ccc(C(C)C)cc1	active: 22.4 µM	–
CCc1ccc(-n2nc(C)c3c(C(=O)Nc4cc(C)c(Cl)cc4OC)cc(C)nc32)cc1	–	inactive: 11.3% [at 9.22 µM]
CN1C(=O)/C(=C/c2cccc(Cl)c2)Sc2ccc(C(=O)N3CCCC3)cc21	inconclusive [activator, single point]	–
O=C(CN1CCSc2ccccc21)N1CCCCC1	–	inactive: 14%
CCOC(=O)N1CCN(C(=O)c2cc3cc(Cl)ccc3[nH]2)CC1	inconclusive [activator, partial curve]	–
CC(NC(=O)CCc1ccccc1)c1cc2c(cc1Cl)OCCO2 (stereo unspecified)	inconclusive [activator, partial curve]	–
O=C(COc1ccc(C(=S)N2CCCC2)cc1)Nc1ccccc1C(F)(F)F	inconclusive [activator, single point]	–
Cc1cccc(-n2c(Cc3ccccc3)nnc2SCc2ccc([N+](=O)[O-])cc2)c1	inconclusive [activator, single point]	–
COc1cccc(Cn2c(SCC(=O)N(C)c3ccccc3)nc3ccccc32)c1	active: 17.8 µM	–
S=C(NCCc1ccccc1)Nc1ccccc1	inconclusive [activator, single point]	–
Nc1nc(Nc2ccccc2F)nc(NCc2ccco2)c1[N+](=O)[O-]	inconclusive [activator, partial curve]	–
CCc1ccc(CN(C)C(=O)c2ccc3c(=O)n4c(nc3c2)CCC4)cc1	inconclusive [activator, partial curve]	–
COC(=O)[C@@]1(Cc2ccc(F)cc2)[C@H]2c3cc(C(=O)N(C)C)n(Cc4ccc(Cl)c(C(F)(F)F)c4)c3C[C@H]2CN1C(=O)c1ccccc1	inconclusive [activator, full curve, poor fit]	–
O=C(Nc1ccc(C(F)(F)F)cc1)C1CCN(c2cnccn2)CC1	active: 15.8 µM	–
Cc1cc(C)c(C)c(OCC(=O)N2CCCCCC2)c1	inconclusive [activator, partial curve]	–
CCOc1cc(/C=C(\C#N)C(=O)Nc2ccc(C)cc2)ccc1OCc1cc(=O)n2nc(CC)sc2n1	–	inactive: -2.84%
CCOc1ccccc1NC(=O)c1c(NCc2cccs2)sc2c1CCCCC2	–	inactive: 14.8%
O=C(NCC1CCCO1)c1cc2c([nH]c3ccccc32)c(-c2cccc(Cl)c2)n1 (stereo unspecified)	active: 20 µM	–
Cc1ccc2oc(-c3cccc(NC(=O)c4ccccn4)c3)nc2c1	inconclusive [activator, partial curve]	–
COCCN1C(=O)/C(=C/c2cc3c(cc2Br)OCO3)NC1=S	active: 20 µM	–
COc1ccc(-c2coc3c(C(=O)Nc4cccnc4)cccc23)c(C)c1	active: 17.8 µM	–
COc1ccc(-c2csc(CCn3nc(C)cc3C)n2)cc1	active: 17.8 µM	–
CN(C)S(=O)(=O)c1cccc(N=C2NN=C(c3ccccc3)CS2)c1	–	inactive: -0.0646%
C=C1CCC[C@]2(C)C[C@H]3OC(=O)C(CN4CCCCC4CO)[C@H]3CC12 (stereo partly specified)	active: 12.6 µM	–

SMILES	Potency	growth rescue (activation)
CCOC(=O)C1=CCN(S(=O)(=O)c2ccccc2Cl)C1c1cccc(Cl)c1 (stereo unspecified)	inconclusive [activator, partial curve]	–
COc1ccc(S(=O)(=O)Cc2ccc(C(=O)N3CC(C)CC(C)C3)o2)cc1 (stereo unspecified)	inconclusive [activator, single point]	–
CCCCn1c(O)c(N=Nc2ccccn2)c2ccccc21	inconclusive [activator, single point]	–
COc1ccc(C)cc1NC(=O)c1cccc(-c2ccc(OC(C)=O)cc2)c1	inconclusive [activator, single point]	–
CCC(=O)N1CCc2cc(CNS(=O)(=O)c3ccc(NC(=O)CC(C)C)cc3)ccc21	inconclusive [activator, partial curve]	–
O=C(CN1C(=O)CC(c2ccco2)Sc2ccccc21)Nc1ccc(Br)cc1 (stereo unspecified)	–	inactive: 4.17%
CCOc1ccc(NCc2nnc(SCc3ccc(Cl)cc3)n2-c2ccccc2)cc1	active: 25.1 µM	–
O=C(/C=C/c1ccc(Cl)cc1)NCCN1CCOCC1	–	inactive: 20.1%
CCCOc1ccc(N2CC(C(=O)Nc3ccccc3OC)CC2=O)cc1 (stereo unspecified)	inconclusive [activator, partial curve]	–
O=C(C1CCCN(S(=O)(=O)c2cnc[nH]2)C1)N(CCc1ccccc1)Cc1ccccc1 (stereo unspecified)	inconclusive [activator, partial curve]	–
C=CCn1c(SCC(=O)C(C)(C)C)nnc1-c1cccs1	–	inactive: 7.83%
Cc1nn(-c2ccccc2)c2c1N(CCCC(=O)NCc1ccccc1)C(=O)CS2	inconclusive [activator, partial curve]	–
CCOc1ccccc1N1CC(O)=C(c2nc3ccccc3s2)C1=N	inconclusive [activator, single point]	–
COc1ccc(NC(=O)C(C)Sc2cc(-c3ccccc3)nc(C)n2)cc1Cl (stereo unspecified)	inconclusive [activator, partial curve]	–
COc1ccc(-c2cc(C(=O)NCCc3ccc(OC)c(OC)c3)c3ccccc3n2)cc1	–	inactive: 9.33%
O=Nc1c(O)n(Cc2ccc(Cl)cc2)c2ccccc12	inconclusive [activator, single point]	–
Cc1cc(OCc2cc(C(=O)N3CCC(Oc4cccnc4)CC3)no2)cc(C)c1Cl	inconclusive [activator, full curve]	–
Cc1ccc(C)c(NC(=S)NCc2ccccc2)c1	inconclusive [activator, partial curve]	–
COc1cccc(C(c2sc3nc(-c4ccco4)nn3c2O)N2CCN(c3ccccc3F)CC2)c1 (stereo unspecified)	active: 11.2 µM	–
Cc1ccc(OCC(=O)Nc2ccc3oc(=O)ccc3c2)cc1C	–	inactive: 8.17%
COc1cccc(N2CCN(C(=O)c3ccc4nc(N5CCCCC5)sc4c3)CC2)c1	inconclusive [activator, single point]	–
Cc1cc(C)cc(NC(=O)C(=O)NCC(c2cccnc2)N2CCN(c3ccccc3)CC2)c1 (stereo unspecified)	–	inactive: 14.9%
O=C(NC1CCCCCCC1)c1ccc(Br)o1	inconclusive [activator, single point]	–
